Assay results taken from paper PMC4336329 (PLoS ONE, 2015).
Hit rate of the full screen: of about 310,000 compounds, about 14,000 (4.5%) showed an effect of 50% or more. Effects have a minus sign here. This is one part of the list.

Target: human ether-à-go-go-related gene (hERG) potassium channel (human, UniProt Q12809)
Assay: primary screen, population patch clamp on CHO cells stably expressing hERG
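Note: peak tail current of the secondary pulse compared with the same well before compound.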

human ether-à-go-go-related gene (hERG) potassium channel, sequence (Q12809 whole entry, looked up): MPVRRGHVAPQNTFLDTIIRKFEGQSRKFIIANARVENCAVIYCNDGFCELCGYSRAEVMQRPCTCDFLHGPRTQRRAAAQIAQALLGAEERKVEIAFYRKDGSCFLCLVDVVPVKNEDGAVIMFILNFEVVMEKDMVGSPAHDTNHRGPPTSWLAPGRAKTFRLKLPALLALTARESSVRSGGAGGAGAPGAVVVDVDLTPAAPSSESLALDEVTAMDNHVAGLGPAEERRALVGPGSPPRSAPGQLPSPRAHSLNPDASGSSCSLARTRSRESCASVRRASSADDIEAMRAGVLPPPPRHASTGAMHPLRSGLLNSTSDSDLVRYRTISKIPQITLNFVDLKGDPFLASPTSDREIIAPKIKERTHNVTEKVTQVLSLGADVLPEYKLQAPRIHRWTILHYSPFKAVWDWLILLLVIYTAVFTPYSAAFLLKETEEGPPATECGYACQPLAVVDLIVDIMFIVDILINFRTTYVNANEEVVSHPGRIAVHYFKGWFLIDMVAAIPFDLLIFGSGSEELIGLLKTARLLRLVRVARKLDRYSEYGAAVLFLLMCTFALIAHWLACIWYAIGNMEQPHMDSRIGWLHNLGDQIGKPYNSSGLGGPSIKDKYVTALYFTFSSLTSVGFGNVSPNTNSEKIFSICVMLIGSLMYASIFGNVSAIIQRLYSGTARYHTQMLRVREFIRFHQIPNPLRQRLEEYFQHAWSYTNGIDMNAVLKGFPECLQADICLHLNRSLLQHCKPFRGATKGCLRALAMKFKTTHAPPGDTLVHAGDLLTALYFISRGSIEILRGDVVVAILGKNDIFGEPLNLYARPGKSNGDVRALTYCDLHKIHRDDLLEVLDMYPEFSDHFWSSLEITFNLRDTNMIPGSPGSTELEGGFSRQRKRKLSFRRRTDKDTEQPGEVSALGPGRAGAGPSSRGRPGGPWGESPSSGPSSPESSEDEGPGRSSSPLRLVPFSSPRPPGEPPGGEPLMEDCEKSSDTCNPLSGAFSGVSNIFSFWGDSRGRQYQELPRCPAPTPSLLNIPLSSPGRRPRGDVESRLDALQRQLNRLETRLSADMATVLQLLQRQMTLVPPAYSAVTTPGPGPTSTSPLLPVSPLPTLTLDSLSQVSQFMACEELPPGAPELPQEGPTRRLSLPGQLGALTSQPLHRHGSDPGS

Row | SMILES | hERG current change (%, negative = inhibition) at 10uM [%]
1 | COc1ccc(C(=O)NC(=S)Nc2cccc3ncccc23)cc1[N+](=O)[O-] | 10.4
2 | COCCCC1CCN(C(=O)C2CCC(=O)N(CC3CCCCC3)C2)CC1 (centres unmarked) | -5.37
3 | CC1C/C(=N/N2C(=O)CSC2=S)CC(C)(C)C1 (centres unmarked) | 14.4
4 | NC(=O)c1cc(S(=O)(=O)N2CCc3ccccc3C2)cs1 | 18
5 | N#Cc1ccc(Cn2c(=O)oc3ccccc32)cc1 | -40.6
6 | Cc1ccc(CCNC(=O)c2coc3nc4ccccc4nc23)cc1 | -1.66
7 | CC(NC(=O)CCC1COc2ccccc2O1)c1ccccc1 (centres unmarked) | 5.24
8 | CC1(C)CC(NC(=O)c2cc(S(=O)(=O)N3CCOCC3)c(Cl)cc2Cl)CC(C)(C)N1 | -0.662
9 | Cc1cc(=O)oc2cc(OCC(=O)N/N=C/c3cc([N+](=O)[O-])ccc3O)ccc12 | 13.3
10 | CCCC(CCC)=NNc1ccc(S(=O)(=O)Nc2ccccc2OC)cc1[N+](=O)[O-] | 13.1
11 | CCOCCCn1c(SCC(=O)Nc2ccccc2)nc2ccccc2c1=O | -29.4
12 | COc1ccc(N2C(=O)CSC23CCCCC3)cc1 | 10.6
13 | Cc1cc(OCCn2cnc3ccccc3c2=O)ccc1[N+](=O)[O-] | -12.4
14 | O=C(NCc1cccnc1)C(=O)NCC(c1ccco1)N1CCN(c2ccccc2)CC1 (centres unmarked) | 1.2
15 | O=C(Nc1ccccc1)[C@@H]1[C@@H]2C(=O)N(c3ccc(F)cc3)C(=O)[C@@H]2[C@H]2C=CC=NN21 | -1.2
16 | CSc1nncn1/N=C/c1ccc2c(c1)OCO2 | 15
17 | CCOC(=O)C(CC)/C(C)=N\NC(=O)c1ccccc1O (centres unmarked) | 11.7
18 | COc1ccc(C(=O)N2CCC3(CC2)NCCc2[nH]cnc23)cc1OC | 31.7
19 | CCCCOc1ccc(C(=O)OC(C)CN(C)C)cc1.Cl (centres unmarked) | -19.2
20 | CCOC(=O)C1(CCOc2ccccc2)CCN(Cc2ccc(OCCO)cc2)CC1 | -77.9
21 | O=S(=O)(c1cccc2nsnc12)N1CCN(C/C=C/c2ccccc2)CC1 | -47.6
22 | CCOc1cc(/C=N/NC(=O)c2ccc3c(c2)OCCO3)cc(Br)c1O | 5.6

Row | SMILES | hERG current change (%, negative = inhibition) at 10uM [%]
23 | O=S(=O)(c1cccc2nsnc12)N1CCN(C/C=C\c2ccccc2)CC1 | -46.6
24 | CC(C)NS(=O)(=O)c1ccc(OCC(=O)NCc2cccnc2)cc1 | -5.7
25 | CC1=C(/C=C/c2ccccc2)CCN(C)C1.Cl | -24.6
26 | Cl.NCC1CCC(C(=O)Oc2ccc(CCC(=O)O)cc2)CC1 (centres unmarked) | 19.4
27 | O=C(CCl)Nc1nccs1 | 6.62
28 | Cc1ccc(N2C(=O)CC(NCC3CCCO3)C2=O)cc1 (centres unmarked) | 46.9
29 | C(=N\Nc1nc(Nc2ccccc2)nc(N2CCOCC2)n1)/c1c[nH]c2ccccc12 | 0.207
30 | CC1=C(C)CC(C(=O)N2CCN(Cc3ccc4c(c3)OCO4)CC2)C(C(=O)O)C1 (centres unmarked) | 21.4
31 | Cc1ccc(CNC(=O)c2ccc(CNS(=O)(=O)c3ccc4c(c3)C(C)(C)C(=O)N4C)cc2)o1 | -7.71
32 | C/C(=N/NC(=O)c1ccoc1C)C12CC3CC(CC(C3)C1)C2 | 11.5
33 | COc1cc([N+](=O)[O-])ccc1NC(=O)CC1SC(=Nc2ccc(F)cc2)N(CCC2=CCCCC2)C1=O (centres unmarked) | -0.932
34 | Cc1cc(C)cc(NC(=O)c2ccccc2NC(=O)CCC(=O)O)c1 | 6.52
35 | Cc1ccc2[nH]c(C(=O)NCCN3CCCC3)cc2c1.Cl | -30.1
36 | CCOc1ccc(Cn2nnc(C(=O)Nc3cc(C)cc(C)c3)c2N)cc1 | 7.96
37 | c1ccc(-n2nnnc2Oc2ccc(-c3nnco3)cc2)cc1 | -26.8
38 | C=CCNC(=O)/C(C#N)=C/c1ccccc1Cl | 16.4
39 | Cc1ccccc1S(=O)(=O)NCC1CCCO1 (centres unmarked) | 17.1
40 | Nc1nc(N)c2nc(-c3ccccc3)c(N)nc2n1 | -8.79
41 | CN(CCNC(=O)C1CC(=O)N(C2CCCC2)C1)Cc1ccccc1 (centres unmarked) | -1.99
42 | O=C(NCc1ccco1)c1ccc(NS(=O)(=O)c2cccc(F)c2)cc1 | 2.54
43 | CCOC(=O)C1=C(N)OC2=C(C(=O)CC(C)(C)C2)C1c1ccc(CC)s1 (centres unmarked) | -7.5
44 | O=c1[nH]c(SCCN2CCOCC2)nc(O)c1-c1ccccc1 | 13.2

Row | SMILES | hERG current change (%, negative = inhibition) at 10uM [%]
45 | COc1cccc(-c2cc(C(F)(F)F)nc(NCc3ccco3)n2)c1 | 18.8
46 | Nc1c(N(Cc2ccccc2)C(=O)CCc2ccccc2)c(=O)[nH]c(=O)n1Cc1ccccc1 | -5.81
47 | Cc1ccc([C@@H]2[C@@H]3C(=O)N(C)C(=O)[C@@H]3[C@@H]3C(=O)Nc4ccccc4C(=O)N23)cc1 | -11
48 | COc1ccc(C(O)c2nc3ccccc3s2)cc1 (centres unmarked) | 6.16
49 | Cc1ccc(CNC(=O)c2ccc(N3CCC4(CC3)CC(c3cccc(Br)c3)=NO4)c(NC(=O)c3cccc(C)c3)c2)cc1 | 12.2
50 | Cc1sc2nc(C(C)C)nc(SCC(=O)N3c4ccccc4CC3C)c2c1C (centres unmarked) | 15.6
51 | O=C(CO)C(O)C(O)C(O)CO (centres unmarked) | 8.48
52 | CC(=O)Nc1ccc(NC(=O)C2CCN(c3c(Cc4ccccc4)c(C)nc4ncnn34)CC2)cc1 | 2.74
53 | CC1CCCC(NC(=O)CN(C)S(=O)(=O)c2cccc3cccnc23)C1C (centres unmarked) | -8.41
54 | O=C(CNc1ccccc1C(=O)O)c1ccccc1 | 14.4
55 | Cc1cc(C(F)(F)Cl)n2ncc(-c3ccccn3)c2n1 | 7.26
56 | COC(=O)C1=C(O)/C(=C/c2cccc(OC)c2O)N=C1C | 26.5
57 | N#C/C(=C\c1ccc(O)c(O)c1)C(=O)NCc1ccccc1 | -10.7
58 | O=C(c1cc(F)c(F)cc1Cl)N1CCN(c2ccc([N+](=O)[O-])c3ncccc23)CC1 | -67.4
59 | CCOc1ccc2oc(C(=O)N(CC)CC(=O)Nc3ccc(NC(C)=O)cc3)c(C)c2c1 | -35.3
60 | COc1cc(/C=C2/NC(=O)N(Cc3ccccc3F)C2=O)cc(OC)c1OC | 14.8
61 | O=C1C2C3C=CC(C4CC34)C2C(=O)N1c1cc(Cl)ccn1 (centres unmarked) | 2.55
62 | CCOC(=O)N1CCN(C(=O)c2ccccc2NC(=O)COc2ccccc2C)CC1 | -16.2
63 | O=C(NN1CCOCC1)c1cc(-c2ccccc2)nc2ccccc12 | -8.03
64 | CCOC(=O)C1(Cc2cccc(OC)c2)CCN(Cc2ccc(OC)c(O)c2)CC1 | -77.9
65 | Cc1ccsc1/C=C/C1=NCCCN1C.O=C(O)C(O)C(O)C(=O)O | 12.3
66 | N#CCCn1cc(/C=N/NC(N)=S)c(-c2ccc(Br)cc2)n1 | -36.4

Row | SMILES | hERG current change (%, negative = inhibition) at 10uM [%]
67 | CCCCn1c(-c2cccc(F)c2)nc2c1c(=O)[nH]c(=O)n2CC(C)C | 9.57
68 | CCc1nccn1CCC(=O)N1CCc2c([nH]c3ccccc23)C1CC(C)C (centres unmarked) | -53.9
69 | O=[N+]([O-])c1ccc(OC/C=C2\Oc3ccc([N+](=O)[O-])cc3C2N2CCOCC2)cc1 (centres unmarked) | -71.7
70 | O=C(Cc1ccccc1)NCC(=O)OCC(=O)c1ccc(OC(=O)c2ccccc2)cc1 | 5.43
71 | Cc1ccccc1NC(=S)Nc1ccc(Br)cc1 | -6.93
72 | O=C1CCC/C(=N\NC(=O)c2ccc(NS(=O)(=O)c3ccc(Br)cc3)cc2)C1 | 7.87
73 | COC(=O)c1ccc(-c2ccc(OC)c([C@H]3[C@H]4C=CC[C@@H](C)[C@@H]4C(=O)N3Cc3ccccc3)c2)cc1 | -5.98
74 | CCOc1ccc(CCNC(=O)CSc2cc(=O)n(CC)c3ccccc23)cc1OCC | -4.11
75 | Cc1cccc2c(=O)c(Br)c(C)n(Cc3ccccc3)c12 | 12.3
76 | Cc1c(Cl)cccc1NC(=O)CSC(N)=O | 16.8
77 | O=C(NCCn1cc(SCc2ccccc2F)c2ccccc21)c1c(F)cccc1F | 11.1
78 | O=S(=O)(c1cccc(-c2nnc(SCc3nc4ccccc4s3)o2)c1)N1CCOCC1 | -31.6
79 | CC(C)OC(=O)CSc1nc(Cc2ccccc2)nc2ccccc12 | 6.28
80 | CC(C)Oc1ccc(OCCn2c(S(=O)(=O)O)nc3c(N)ncnc32)cc1 | 15.9
81 | O=C(Nc1nsc(-c2ccccc2)n1)c1cccs1 | -16.6
82 | Cc1cccc(Oc2coc3cc(O)ccc3c2=O)c1 | -11.8
83 | COc1cc(C(=O)Nn2c(CC(C)C)nc3ccccc3c2=O)cc(OC)c1OC | 10.6
84 | Cc1cccc(N2C(=O)/C(=C/c3ccc(CN(CCC#N)S(C)(=O)=O)o3)C(=O)NC2=S)c1 | 16.1
85 | O=C(CCCn1c(=S)[nH]c2cc3c(cc2c1=O)OCO3)N1CCN(c2ccc(F)cc2)CC1 | -6.78
86 | COC(=O)C1=C(c2ccc(F)cc2F)C[C@@H]2CC[C@H]1N2C(=O)NCCNC(C)=O | 23.9
